# Experimental data published in PubChem BioAssay AID1347165 (National Center for Advancing Translational Sciences (NCATS), 2019).
# Among all 220,000 compounds or so, about 5,700 (2.6%) were called active. This list was built around the results that the source calls inconclusive (neither active nor inactive); the mix of calls is not that of the screen. Calls follow the shape of the dose curve; as a rule, active = well fitted inhibition curve with a large enough effect; inconclusive = small, poorly fitted or top-dose-only effect; inactive = no such curve, though single readings can be large or run the other way. Potencies of inconclusive entries are doubtful fits and often do not repeat.
# Biological target: Lysine-specific demethylase 5B (Homo sapiens) (UniProt Q9UGL1)
# Test: Primary screen for KDM5B Histone Demethylases FDH-coupled qHTS; also: nearly all actives have a fitted effect of over 70% in size; as to activity change, negative = inhibition: 0% is about no effect
# Conditions: FDH-coupled NADH fluorescence (FDH is formaldehyde dehydrogenase); activity change, negative = inhibition: at 57.7 µM (top of the series) unless noted
# In short: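 qHTS format, multiple compound concentrations. Buffer 50 mM HEPES pH 7.5/0.01% Tween-20; 200 nM KDM5BΔAP final; 10 min compound preincubation; substrate-mix levels 12.5 µM peptide, 25 µM α-KG, 0.25 mM NAD⁺; 30 min RT; ΔRFU.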
# Potency is read from the fitted curve at half-maximal effect; tags tell the direction and shape of the fitted curve.
# Sequence of UniProt Q9UGL1 (Q9UGL1 whole entry, looked up): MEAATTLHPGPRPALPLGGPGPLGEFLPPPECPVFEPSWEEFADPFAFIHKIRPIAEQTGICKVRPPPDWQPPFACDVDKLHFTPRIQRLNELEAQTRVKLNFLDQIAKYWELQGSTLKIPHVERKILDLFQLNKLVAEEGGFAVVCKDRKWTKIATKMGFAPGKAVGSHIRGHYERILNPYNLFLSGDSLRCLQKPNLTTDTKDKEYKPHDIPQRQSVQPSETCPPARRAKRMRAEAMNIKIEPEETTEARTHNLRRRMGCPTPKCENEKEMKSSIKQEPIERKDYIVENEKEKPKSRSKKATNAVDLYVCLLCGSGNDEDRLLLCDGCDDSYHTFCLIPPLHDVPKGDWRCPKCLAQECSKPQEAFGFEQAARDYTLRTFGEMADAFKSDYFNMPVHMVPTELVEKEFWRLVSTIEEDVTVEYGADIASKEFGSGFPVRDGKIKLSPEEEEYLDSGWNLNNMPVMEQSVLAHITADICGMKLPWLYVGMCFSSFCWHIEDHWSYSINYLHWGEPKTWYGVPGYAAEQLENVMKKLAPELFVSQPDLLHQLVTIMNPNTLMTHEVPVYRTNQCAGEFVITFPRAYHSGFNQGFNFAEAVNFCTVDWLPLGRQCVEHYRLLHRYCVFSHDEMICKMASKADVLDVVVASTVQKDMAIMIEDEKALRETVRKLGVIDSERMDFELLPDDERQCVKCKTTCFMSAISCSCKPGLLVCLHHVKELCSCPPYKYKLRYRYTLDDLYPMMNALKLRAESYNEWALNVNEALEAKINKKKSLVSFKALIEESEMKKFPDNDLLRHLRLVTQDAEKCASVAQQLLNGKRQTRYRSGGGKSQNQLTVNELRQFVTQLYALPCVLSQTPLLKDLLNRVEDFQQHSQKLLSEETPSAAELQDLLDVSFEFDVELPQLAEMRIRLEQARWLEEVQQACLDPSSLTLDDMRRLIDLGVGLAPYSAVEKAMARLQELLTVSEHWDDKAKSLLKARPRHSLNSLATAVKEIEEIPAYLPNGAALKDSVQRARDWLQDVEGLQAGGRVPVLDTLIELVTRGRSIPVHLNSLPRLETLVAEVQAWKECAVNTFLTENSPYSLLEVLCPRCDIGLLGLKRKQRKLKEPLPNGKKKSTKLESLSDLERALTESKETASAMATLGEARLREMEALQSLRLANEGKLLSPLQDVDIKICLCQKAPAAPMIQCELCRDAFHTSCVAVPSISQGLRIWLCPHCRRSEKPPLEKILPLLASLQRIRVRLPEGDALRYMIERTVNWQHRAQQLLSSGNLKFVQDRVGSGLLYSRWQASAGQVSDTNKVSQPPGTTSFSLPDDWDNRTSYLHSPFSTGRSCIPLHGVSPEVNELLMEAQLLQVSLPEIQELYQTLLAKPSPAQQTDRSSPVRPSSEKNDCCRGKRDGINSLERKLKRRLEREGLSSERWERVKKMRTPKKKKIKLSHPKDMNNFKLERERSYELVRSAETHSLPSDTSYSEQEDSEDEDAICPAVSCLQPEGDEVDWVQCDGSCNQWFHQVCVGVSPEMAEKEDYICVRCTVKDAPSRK
SMILES,Potency,"activity change, negative = inhibition"
CC(C)(C)c1ccc(NC(=O)O[C@@H]2CO[C@H]3[C@@H]2OC[C@@H]3Nc2nccc(-c3cccc(F)c3)n2)cc1,"inconclusive: 4.47 µM [inhibitor, full curve]",–
COc1cccc(-c2cn3c(n2)sc2cc(C(=O)NCc4cccs4)ccc23)c1,"inconclusive: 31.6 µM [inhibitor, partial curve, poor fit]",–
COc1ccc2cc(C(=O)NCC(=O)N3CCCCCCNC(=O)CC3c3ccccc3)[nH]c2c1 (configuration not stated),"inconclusive: 28.2 µM [inhibitor, partial curve, poor fit]",–
O=C(/C=C/c1ccccc1)NC(=S)NNC(=O)c1cnccn1,"inconclusive: 25.1 µM [inhibitor, partial curve, poor fit]",–
CC1(C)CC(NC(=O)COc2ccc3ccc(=O)oc3c2)CC(C)(C)N1,"inconclusive: 28.2 µM [inhibitor, partial curve, poor fit]",–
CCOc1ccc(-n2cc(-c3ccccc3)c3c(NC(C)C)ncnc32)cc1,"inconclusive: 39.8 µM [inhibitor, single point]",–
CC(C)NC(=O)c1cc(-c2ccc(Cl)cc2)nc2ccccc12,–,inactive: -15.4%
C[S+](=O)([O-])N1CCn2ncc(C(=O)NCc3ccc(Cl)nc3)c2C1,–,inactive: 5.31% [at 115 µM]
CCc1ccc(OC(=O)CSc2nnc(-c3ccc4c(c3)OCO4)o2)cc1,"inconclusive: 39.8 µM [inhibitor, single point]",–
COc1ccc(CN2CCc3nc(C(=O)N4CCOCC4)oc3CC2)cc1OC,–,inactive: 4.99% [at 86.2 µM]
COCCN1C(=O)c2ccccc2C(C(=O)Nc2ccc(F)cc2)C12CCCC2 (configuration not stated),"inconclusive: 12.6 µM [inhibitor, partial curve, poor fit]",–
COc1ccc(-c2noc([C@@H](C)NC(=O)C3CCCCC3)c2C(=O)O)cc1,–,inactive: -7.52% [at 86.2 µM]
CNC(=O)N1C[C@@H](CN(C)C)[C@H](N)C1,–,inactive: 67.4%
CN1CC(=O)N(C2CCCNCC2)Cc2c(NCC3CCCCC3)ncnc21 (configuration not stated),"inconclusive: 50.1 µM [inhibitor, partial curve, poor fit]",–
CCOC(=O)c1c(C)[nH]c(CCC(=O)NCCCN2CCN(c3cccc(Cl)c3)CC2)c1C,"inconclusive: 31.6 µM [inhibitor, single point]",–
CC(=O)NCCNC(=O)CCCc1nnc2n(CCC(C)C)c(=O)c3sccc3n12,"inconclusive: 7.08 µM [inhibitor, partial curve, poor fit]",–
Cc1cccc(CN2CCCCCCNC(=O)[C@@H]3CCC[C@@H]32)c1,"inconclusive: 10 µM [inhibitor, partial curve]",–
CCN(c1ccccc1)S(=O)(=O)c1nnc(NC(=O)COc2ccc(OC)cc2)s1,–,inconclusive: -33.8% [inhibitor]
CC(C)(Oc1nn(CC2CC2)c2ccc(CN3CCCC3)cc12)C(=O)NC1CC1,active: 39.8 µM,–
COc1ccc(CN2C[C@H](O)C[C@H]2c2nc(-c3ccc(OC)cc3)no2)cc1,–,inactive: -23.3% [at 86.2 µM]
COc1ccc(-c2nc3n(n2)C(c2ccc(OC)cc2)C(C(=O)Nc2cccnc2)=C(C)N3)cc1 (configuration not stated),"inconclusive: 25.1 µM [inhibitor, single point]",–

SMILES,Potency,"activity change, negative = inhibition"
COc1ccc(OC)c(C(=O)OCc2nc(N)c3ccccc3n2)c1,"inconclusive: 31.6 µM [inhibitor, partial curve, poor fit]",–
CCC(C)NC(=O)CCc1c(C)nc2c(c(OC)nn2C)c1C (configuration not stated),"inconclusive: 28.2 µM [inhibitor, partial curve, poor fit]",–
COCCn1cc(CN2CCN(Cc3cccc(F)c3)CC2)ccc1=O,"inconclusive: 17.8 µM [inhibitor, partial curve, poor fit]",–
COc1ccc(CN2CCN(Cc3cccnc3)CC2)cc1OCc1ccccc1,"inconclusive: 14.1 µM [inhibitor, partial curve, poor fit]",–
O=C(NC1CCCC1)c1c[nH]c2ccc(S(=O)(=O)Nc3cccc(C(F)(F)F)c3)cc2c1=O,–,inconclusive: -34.5% [inhibitor]
O=C(N[C@@H]1CN(c2ccncn2)C[C@H]1CO)C1CCCC1,–,inactive: 12%
COc1ccc(CSc2nc3ncccc3[nH]2)cc1,–,inactive: 12.5%
Cc1ccc(C)c(NC(=O)C2CCCN(S(=O)(=O)c3c(C)noc3/C=C/N(C)C)C2)c1 (configuration not stated),–,inconclusive: -33.9% [inhibitor]
O=C(Nc1cnc2ccccc2c1)c1cccc(S(=O)(=O)N2CCN(c3ccccc3)CC2)c1,–,inactive: -29%
O=C(CCCc1cccs1)N1CCC2(CC1)[C@H](O)C[C@@H]2OCCO,–,inactive: 23%
Cc1ccc(-c2cc(-c3ccc(Cl)cc3)c(C#N)c(N)c2C#N)cc1,"inconclusive: 25.1 µM [inhibitor, single point]",–
O=C(Nc1c(NCc2ccccc2)c2ccccc2oc1=O)c1ccccc1F,–,inactive: -5.97%
CC(C)CN(Cc1cc2ccccc2[nH]c1=O)C(=O)c1ccco1,"inconclusive: 11.2 µM [inhibitor, partial curve, poor fit]",–
O=C(Cn1c(=O)n(Cc2ccc3c(c2)OCO3)c(=O)c2ccccc21)Nc1cccc(Cl)c1,"inconclusive: 31.6 µM [inhibitor, single point]",–
COc1ccc(C(=O)Oc2ccccc2OC)cc1Br,–,inactive: 15.8%
Cc1c(C(=O)N2CCCC2)oc2c1-c1nn(CC(=O)NCc3cccc(Br)c3)cc1CC2,"inconclusive: 28.2 µM [inhibitor, partial curve, poor fit]",–
O=C(c1ccc(C(F)(F)F)cc1)N1CCC2(CC1)CC(c1cccnc1)=NO2,–,inactive: -16.6%
COCC(=O)N[C@H](C)c1c(-c2ccc(F)cc2)noc1C(=O)O,"inconclusive: 31.6 µM [inhibitor, single point]",–
COc1ccc(Cl)cc1NC(=O)CCc1nc(-c2ccccc2F)no1,"inconclusive: 3.55 µM [inhibitor, full curve, poor fit]",–
CC(C)(CO)Nc1nc(-c2ccccc2)c2cc(Br)ccc2n1,"inconclusive: 35.5 µM [inhibitor, single point]",–
Cc1ccc(-c2noc(COC(=O)Cc3n[nH]c(=O)c4ccccc34)n2)cc1,–,inactive: 22.6%
